# From PubChem BioAssay AID463173 (ICCB-Longwood Screening Facility, Harvard Medical School, 2010)
# Among all 52,000 compounds or so, about 4,300 (8.3%) were called active. Rule as the data show it: active = survival mostly below about 52% (no sharp cut-off); inactive = mostly above about 56%. The list shows a part of the results.
# Tested on: DeltatarO mutant
# Experiment: growth inhibition of S. aureus wild type versus tarO mutant, primary screen, teichoic acid synthesis inhibitors, RN4220, OD600 (AID 463173)
# Details: OD600, 18 h, stronger effect = lower value, screened at 18.75 µg/mL (by protocol)
row,SMILES,survival
1,CCOC(=O)c1cccc(NC(=O)c2ccc3c(c2)nnn3CC)c1,inactive: 66%
2,COc1cccc(-c2nnc(SCC(=O)N3CCCCC3)o2)c1,inactive: 98%
3,COC(=O)C1C2C=CC3(CN(Cc4ccco4)C(=O)C13)O2 (stereo not given),inactive: 81%
4,Cc1oc2c(c1C(=O)Nc1ccc(F)c(F)c1)C1=NCCN1C=N2,inactive: 94%
5,CC1(C)Cc2nc3sc(C(=O)NN)c(N)c3cc2CO1,inactive: 97%
6,CCc1cccc(CC)c1NC(=O)CCS(=O)(=O)c1ccc(Br)s1,inactive: 69%
7,Cn1cc(-c2cc3n(n2)CCC(=O)N3CCCC(=O)NCc2ccc(F)cc2)c2ccccc21,inactive: 88%
8,COc1ccc2[nH]cc(NC(=O)N3CCN(C)CC3)c(=O)c2c1,inactive: 100%
9,CCOC(=O)c1ccccc1Nc1nc2ccc(C)cc2n2nnnc12,inactive: 78%
10,Cc1cccc(C)c1NC(=O)c1nc(S(C)(=O)=O)ncc1N(Cc1ccc(C(C)(C)C)cc1)Cc1ccco1,inactive: 49%
11,O=C(CCSc1nnc(-c2ccncc2)o1)Nc1ccccc1,inactive: 74%
12,CCOc1ccc(NC(=O)c2oc3ccccc3c2NC(=O)C2CCCCC2)cc1,inactive: 103%
13,Cc1ccc(NC(=O)Cn2c(=O)c(C(F)(F)F)nc3ccccc32)cc1C,inactive: 60%
14,CCOC(=O)c1ccccc1NC(=O)Cn1nnc2sc3c(c2c1=O)CCCC3,inactive: 63%
15,Cc1ccc(C(C(=O)NC2CCCCC2)N(C)Cc2ccccc2)cc1 (stereo not given),active: -3%
16,Cc1ccc2oc3c(c(=O)c2c1)C(c1ccccc1F)N(c1ccccn1)C3=O (stereo not given),inactive: 81%
17,CC(=O)Nc1ccc(-c2csc(N)n2)cc1,inactive: 90%
18,COc1ccc(Cn2ccnc2SCC(=O)Nc2ccc3c(c2)OCO3)cc1,inactive: 88%
19,COc1ccc(-c2cc(C(F)(F)F)n3nc(C(=O)Nc4cc(C(F)(F)F)ccc4Cl)cc3n2)cc1OC,inactive: 152%
20,CCN1CCN(Cc2c(O)ccc3oc(C)c(C(=O)Nc4ccc(OC)cc4)c23)CC1,inactive: 78%

row,SMILES,survival
1,FC(F)(F)Sc1ccc2noc(-c3ccccc3)c2c1,inactive: 91%
2,Cc1ccc(NC(=O)CSc2nc3nc(C)c(Cc4ccccc4)c(C)n3n2)cc1,inactive: 60%
3,CC(C)CNC(=O)N1CCN(S(=O)(=O)c2ccc3c(ccn3C)c2)CC1,inactive: 80%
4,CCOC(=O)N1CCN(c2ncc3c(n2)CC(c2ccc(OC)c(OC)c2)CC3=O)CC1 (stereo not given),inactive: 81%
5,Cc1noc(/C=C/c2ccccc2F)c1S(=O)(=O)N1CCC(C(=O)NCc2ccco2)CC1,inactive: 107%
6,COc1ccc(CCNC(=O)CCc2c(C)nc3cc(-c4ccc(Cl)cc4)nn3c2C)c(OC)c1,inactive: 108%
7,COc1ccccc1CN1CCC(C(=O)NCc2ccc(C)cc2)CC1,inactive: 101%
8,COc1ccccc1Cc1nc2ccccc2nc1SCC(=O)N1CCCCC1,inactive: 71%
9,CCCCOc1ccccc1NC(=O)CC1Sc2ccccc2NC1=O (stereo not given),inactive: 155%
10,COc1ccc(NC(=O)c2sc3nc4n(c(=O)c3c2C)CCC4)c(OC)c1,inactive: 79%
11,CCc1ccc(NC(=O)Cn2c(=O)n(Cc3ccc(C)cc3)c(=O)c3cccnc32)cc1,inactive: 88%
12,CC(=O)N1CCCc2cc(S(=O)(=O)N3CCC(C(=O)N(C)C4CCCCC4)CC3)ccc21,inactive: 74%
13,Cc1ccccc1C(=O)Nc1nnc(S(=O)(=O)N2CCc3ccccc32)s1,inactive: 95%
14,CCOC(=O)c1ccccc1NC(=O)N1CCCn2nc(C)cc21,inactive: 87%
15,O=C(/C=C(/O)c1cccnc1)C(F)(F)F,inactive: 93%
16,Cc1cc(C)cc(N2C(=O)CSC23C(=O)N(CC(=O)NC2CCCCC2)c2ccccc23)c1 (stereo not given),inactive: 115%
17,CCOc1ccc(C2CC(=O)c3c([nH]c(C(=O)OCCOc4ccccc4)c3C)C2)cc1 (stereo not given),inactive: 72%
18,CN(C)N1C(=O)CC(N2CCCC2)C1=O (stereo not given),inactive: 72%
19,O=C(c1ccc2c(c1)N(Cc1cccc(Cl)c1)C(=O)c1ccccc1S2(=O)=O)N1CCCC1,inactive: 115%
20,Cc1ccccc1Cn1nnc2c(=O)[nH]c(C3CCCN(C(=O)c4ccc(C(C)(C)C)cc4)C3)nc21 (stereo not given),active: 7%

row,SMILES,survival
1,COc1ccc(OC)c(CCNC(=O)c2cnn(-c3ccccc3)c2-n2cccc2)c1,inactive: 74%
2,CN(c1ccc(C(=O)N2CCCCC2)cc1)S(C)(=O)=O,inactive: 101%
3,O=C(/C=N/O)Nc1cccnc1,inactive: 105%
4,O=C(CCS(=O)(=O)c1cc(Br)cc2c1N(C(=O)C1CC1)CC2)N1CCN(c2ccccc2)CC1,inactive: 91%
5,CCN(CC)C(=O)CSc1nc2c(c(=O)n(C)c(=O)n2C)n1Cc1ccccc1,inactive: 76%
6,CCOc1ccc(NC(=O)c2cnn(-c3ccccc3)c2-n2cccc2)cc1,inactive: 71%
7,O=C(CN1CCOCC1)NN=C1CCCCC1,inactive: 92%
8,O=C(Cn1cc(SCc2ccc(F)cc2)c2ccccc21)N1CCCCCC1,inactive: 81%
9,N#Cc1c(-c2ccccc2)cc(-c2ccccc2)nc1SCC(O)CS(=O)(=O)Cc1ccccc1 (stereo not given),inactive: 67%
10,CCOCCCNC(=O)C1CCCN(c2ncnc3onc(C)c23)C1 (stereo not given),inactive: 68%
11,O=C(CCc1ccccc1)N(Cc1cccnc1)c1nc2ccc(F)cc2s1,inactive: 80%
12,Cc1nn(C)c2c1c(-c1ccccc1)cc(=O)n2Cc1ccc(F)cc1Cl,inactive: 89%
13,CCN(CC)C(=O)Cn1c(=O)n(-c2ccc(Cl)cc2)c(=O)c2c3c(sc21)CCCCC3,inactive: 89%
14,CC1CCN(C(=O)c2cc3n(n2)C(C(F)(F)F)CC(c2ccccc2)N3)C(C)C1 (stereo not given),inactive: 81%
15,CCS(=O)(=O)c1nnnn1-c1ccccc1,active: 9%
16,O=S1(=O)CCC(NC2CCCCC2)C1 (stereo not given),inactive: 96%
17,CCCN(Cc1cccs1)C(=O)Nc1cc(C)cc(C)c1,inactive: 98%
18,CCC(CC)c1nc2ccccc2c(=O)[nH]1,inactive: 98%
19,CN(Cc1ccccc1)c1ccc2cc(S(=O)(=O)N3CCCCC3)ccc2n1,inactive: 64%
20,COc1ccc2cc(-c3nc(-c4ccc(N(C)C)cc4)no3)c(=O)oc2c1,inactive: 96%
